Experimental data from the supplement of paper PMC3334620.
The full ranking holds about 33,000 sequences; the median of “E-score (-0.5 to 0.5)” is about -0.016, and the highest 2% start at about 0.32. The list shows a part of the results.

biological target: T1, Stp1 (UniProt B3LFK1); assay: PBM E-score (8-mer binding enrichment) (E-score (-0.5 to 0.5)); higher = stronger / more preferred TF binding; most listed sequences are background and not binding sites; details: protein concentration: 200 nM; construct: GST-full length
T1 sequence: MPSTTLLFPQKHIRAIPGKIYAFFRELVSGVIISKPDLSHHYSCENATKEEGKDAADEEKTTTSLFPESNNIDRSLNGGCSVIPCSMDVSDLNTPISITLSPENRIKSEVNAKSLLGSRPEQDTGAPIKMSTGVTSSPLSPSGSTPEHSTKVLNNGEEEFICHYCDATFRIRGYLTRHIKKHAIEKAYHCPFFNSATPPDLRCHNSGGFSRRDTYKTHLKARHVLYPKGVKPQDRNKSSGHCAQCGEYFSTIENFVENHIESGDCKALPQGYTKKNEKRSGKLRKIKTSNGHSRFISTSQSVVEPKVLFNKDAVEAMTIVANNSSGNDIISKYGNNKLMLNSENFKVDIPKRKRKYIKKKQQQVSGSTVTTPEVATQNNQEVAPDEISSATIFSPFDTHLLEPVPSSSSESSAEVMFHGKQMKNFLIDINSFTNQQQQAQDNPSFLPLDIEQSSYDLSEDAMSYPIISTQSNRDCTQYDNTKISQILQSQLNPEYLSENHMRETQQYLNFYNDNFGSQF
Method in brief: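 Detection of bound protein used fluorescent anti-GST, with scans normalised by masliner. The proteins were GST-tagged yeast transcription factors applied at about 100-200 nM to universal all-10-mer Agilent arrays made double-stranded by primer extension. Each ungapped eight-base word, pooled with its reverse complement, was scored with an E-score from the Universal PBM Analysis Suite.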

Sequence | PBM E-score
CGAGTTCC | -0.0641
CCCCATTC | -0.135
ATGCCACA | 0.243
GGAGGTAC | -0.209
GAGATATC | 0.0576
ACTTATGC | -0.039
CAAAACTC | -0.0208
GGCGAACC | 0.163
CGCCGTAG | 0.465
TCCCGCGA | -0.312
TGATGACA | -0.128
GCCCGCTA | -0.112
CGAATTAC | -0.0649
ACAATACA | 0.146
AGGGTGCG | -0.125
CGGGTCCA | -0.289
CCGCGCGG | 0.469
CACAAATA | 0.237
GCGTCGCA | -0.0271
TTAACAAA | 0.175
ACCAATAC | -0.092
AGAGAGCA | -0.213
CGATACAA | 0.0278
ACGGGATA | 0.0598
AGTACTTA | -0.0805

Sequence | PBM E-score
ATAAGGTC | -0.0818
CCAGGGCA | -0.0496
CCCAGGAG | -0.182
GACATATC | 0.0516
AGCGAACT | 0.00922
CCTCGAGC | 0.134
CAGAACAA | 0.175
AGCCAACG | 0.109
GCTCCGCA | 0.209
ATGCATTC | 0.0215
CGTGCACA | -0.017
AGTTCGAC | 0.0693
AATGACCA | -0.167
TCGGAAAA | 0.0755
GTGCTAAA | 0.119
ACCACTAC | -0.0664
CATAGCCG | 0.171
CCCTCGAA | -0.293
GCAACTTA | 0.0426
AACAGCAT | 0.0669
CCATACCG | 0.0658
ATAGGGCA | 0.222
CACTTTCA | -0.0764
AGTTAACA | 0.0843
GTAAACAC | 0.0667

Sequence | PBM E-score
TATGAATA | 0.136
AGTACCTA | -0.0253
GCATGACC | -0.233
GACCGTCA | -0.187
AAGTGTCC | 0.0872
AGAATACT | 0.142
AACTAGTA | 0.00173
AGCCTTGG | -0.138
CAACCAGA | 0.0587
CCCAGAAG | -0.081
CAAGTAAC | 0.0497
CGAGGCTA | 0.0726
GCCATCAC | -0.108
CCCATTGA | 0.0975
GCACTCTA | -0.0288
ATGTATGA | -0.0416
CAACTAAA | 0.135
AACGAGTT | -0.18
ATCTTTGC | 0.262
ACGTTTAA | 0.12
CTCGTTAA | -0.0134
AATTCGGA | 0.0454
GGCGTCCA | 0.139
CAACGTTG | 0.195
GCAAACAA | 0.117

Sequence | PBM E-score
AGTCAAAC | -0.0852
GGCAACTA | 0.222
ACGGGTAT | 0.206
CAACATCG | 0.0749
CGGATCAG | -0.00649
GATAAACA | 0.0115
GCTTTACA | 0.112
ACATAGGG | -0.00181
GAGCACTC | -0.112
GGACACCA | 0.0259
CTTGATAC | 0.113
AAGCGCAC | -0.175
GCCATAAC | -0.207
CAGGCGCC | 0.286
TACTCATA | 0.0338
CTTCCACA | 0.0466
ATCGCCAC | 0.286
AGGATTAC | -0.0414
CCTAAAAC | -0.0975
GAAATCCC | -0.202
ACGAGCTA | -0.122
GGTCTGGA | -0.28
ATGTTAAG | 0.0614
AAACTTTG | 0.24
GGCGTCAC | 0.179

Sequence | PBM E-score
GGGCCCTA | -0.215
AACGAAAC | 0.136
CTGAGCCA | -0.0648
TGAAAGCA | 0.108
ACGATCAG | -0.035
GCTCCAAC | 0.191
GTAACCTA | 0.137
AACATCTC | -0.101
CATCGCGG | 0.0513
ATGCCATG | 0.276
TGCTGAAA | -0.00267
AGCGCATC | -0.26
AAATCACT | 0.00777
TACAGGTA | 0.015
CTGTCTCC | -0.179
ACGCTCCT | -0.0745
AAACCGGC | -0.0811
GCTTGCAC | -0.0781
CCTATCAC | -0.0327
CGAGACGA | -0.154
GGCGCCCC | 0.284
ATTAGGCA | 0.127
AGGAATAT | 0.137
GACCTATA | 0.139
ACTGAACT | 0.0818

Sequence | PBM E-score
AGGCTGCA | 0.00538
AGTGCACT | 0.0116
CCGGCTAG | -0.317
GGCCACCC | -0.156
CAGGTTGC | -0.073
GTGTATTA | 0.202
GGGAGAAA | -0.249
CCGTGTGC | 0.312
ATCTGGAG | -0.0951
TAGGTTGA | -0.126
CCTTCGGC | 0.0287
GCAAGACC | -0.148
CACATTGG | -0.01
CGGCTGAA | 0.0878
ATCAATCA | 0.112
AGCGGCCG | 0.285
CGGCTTCC | 0.211
AACCCTCA | -0.269
GCGCTAGC | -0.155
CGCAGCCC | 0.0195
GGACAGCC | 0.0472
GGCCGACA | -0.134
AGTTACAA | 0.143
ATAGTAAT | 0.196
AGACCAGG | -0.205

Sequence | PBM E-score
TCCTTACA | 0.0795
CGTCCTAC | -0.06
GCCACGCA | 0.039
AAGTGTGA | 0.0119
CCGTACAC | 0.168
CAAGGGGG | -0.123
ATCTGGAA | 0.131
GGCATTCA | 0.267
GCAGTGAC | 0.0167
GTGCTAGA | -0.198
GGAAAAAC | 0.132
TCTATGCA | -0.0103
ACACTAAG | -0.0632
CACGCGTA | 0.138
AATGCTGC | -0.0328
CTGTACCA | -0.242
ATGACGTG | 0.0346
ACGAAGCC | 0.152
GACCACGA | -0.124
CCCATACC | -0.0293
GAACATCC | 0.149
AGCGCAAA | -0.0739
